Several values for one entry are separate records, joined by “and”; a condition that tells them apart may be missing. Equal values may be shown once. Over roughly 13,000 compounds, “IFI” has its median near 4; the highest 2% begin near 17. Some of the results follow.
Assay: GSK_TCMDC: Inhibition Frequency Index (IFI). The number of non-kinase HTS assays where a compound showed > 50 % inhibition, expressed as a percentage of the number of such assays in which the compound was tested (-0 is zero)
Format: functional

Compound | IFI
CC1(C)CCCN(C(=O)Cc2ccc3c(c2)CCCC3)C1CN1CC=CC1 (stereo unspecified) | 1.41%
CC(C)CNCc1cccc(-c2ccc(CN(C(=O)Nc3ccccc3)C3CCN(Cc4ccccc4)CC3)cc2)c1 | 5.71%
O=C(Nc1cc(C(F)(F)F)cc(C(F)(F)F)c1)N1CCC(CN2CCC(c3c[nH]c4ccccc34)CC2)CC1 | 4.29%
Cc1[nH]c2ccccc2c1C1=CCN(CCCCCC23CCCc4cccc(c42)NC3=O)CC1 (stereo unspecified) | 2.84%
S=C(NCCc1ccc(Cl)cc1)NC1CCC(CN2CCC(c3c[nH]c4ccccc34)CC2)CC1 (stereo unspecified) | 6.52% and 5%
CN(c1cc(NC(=O)c2ccc(F)cc2)ccn1)C1CCN(Cc2ccc(C#N)cc2)CC1 | 2.5%
O=C(c1cccs1)N(Cc1cccc(-c2ccc(CNC3CCCC3)cc2)c1)C1CCN(Cc2ccccc2)CC1 | 9.79%
NCc1ccc(-c2ccccc2CN(C(=O)Nc2ccccc2)C2CCN(Cc3ccccc3)CC2)cc1 | 7.91%
CCCCCc1cc(O)c2c(c1)OC(C)(C)CC2C1=CCN(Cc2cnc3ccccc3c2)CC1 (stereo unspecified) | 3.68%
Cc1cccc(N2CCN(Cc3cc(Cl)ccc3O)CC2)c1C | 2.08%
CCc1ccc(CC(C)NCC(O)c2ccccc2)cc1 (stereo unspecified) | 4.55%
CC(Cc1ccc(CSC(C)C)cc1)NCC(O)c1cccc(Cl)c1 (stereo unspecified) | 7.04%
COc1ccc(CC(C)NCC(O)c2cccc(Cl)c2)cc1C (stereo unspecified) | 2.9%
CN1CCN(c2ccc3[nH]c(-c4ccc5[nH]c(-c6ccc(O)cc6)nc5c4)nc3c2)CC1 | 5.26%
CC[C@H]1CN2CC[C@H]1C[C@H]2[C@H](O)c1cc(-c2ccc(F)cc2)nc2ccc(OC)cc12 | 9.46%
O=C(/C=C/c1ccc(Cl)c(Cl)c1)N1CCC(CN2CCC(c3c(-c4ccc(F)cc4)[nH]c4ccccc34)CC2)CC1 | 0.73%
O=C(C=Cc1ccc(F)c(Br)c1)NC1CCC(CN2CCC(c3c[nH]c4ccccc34)CC2)CC1 (stereo unspecified) | 3.76% and 4.48%
COc1ccc(CCNCc2ccc3c(C)cc(N)nc3c2)cc1 | 2.63%
O=C(/C=C/c1ccc(Cl)c(Cl)c1)Nc1cccc(CN2CCC(c3c[nH]c4ccccc34)CC2)c1 | 7.19%

Compound | IFI
CCC1(C)CC(CCNCc2ccccc2O)(c2ccc(F)cc2)CCO1 (stereo unspecified) | 2.26%
C=C[C@H]1CN2CC[C@@H]1C[C@H]2[C@H](O)c1cc(-c2ccc(F)cc2)nc2ccc(OC)cc12 | 5.88%
O=C(/C=C/c1ccc(Cl)c(Cl)c1)N1CCC(CN2CCC(c3c[nH]c4ccccc34)C(O)C2)CC1 (stereo unspecified) | 4.44%
C1=C(c2c[nH]c3ccccc23)CCN(Cc2ccccc2)C1 | 4.62%
O=C(/C=C/c1c(Cl)cccc1Cl)NC1CCC(CN2C3CCC2CC(c2c[nH]c4ccccc24)C3)CC1 (stereo unspecified) | 4.44%
Cc1[nH]c2ccc(O)cc2c1C1CCN(CC2CCN(C(=O)/C=C/c3ccc(Cl)c(Cl)c3)CC2)CC1 | 6.9%
CC[C@H]1CN2CCc3cc(OC)c(OC)cc3[C@@H]2C[C@@H]1C[C@H]1NCCc2c1cc(OC)c(OC)c2Br | 9.35%
CC(C)CN1CCC(N(C)c2cc(NC(=O)c3cccc(F)c3)ccn2)CC1 | 2.78%
N#Cc1c(Cl)cccc1Oc1ccc(S(=O)(=O)NC2CCC(CN3CCC(c4c[nH]c5ccccc45)CC3)CC2)cc1 (stereo unspecified) | 10.1% and 7.8%
O=C(c1cc(C(=O)NCc2ccc(Cl)cc2)c(=O)n(Cc2ccc(Cl)cc2)c1)c1cc(Cl)ccc1O | -0%
COC(=O)c1ccc(CC(C)NCC(O)c2cccc(C(F)(F)F)c2)c(Cl)c1 (stereo unspecified) | 4.55%
COC(=O)/C=C/c1ccc(CC(C)NCC(O)c2cccc(Cl)c2)cc1 (stereo unspecified) | 4.38%
CNCCN(C)C(=O)Oc1c(Br)c(C)nc(C)c1-c1ccc(Oc2ccc(OC(F)(F)F)cc2)cc1 | 12.4%
Cc1[nH]c2ccccc2c1C1=CCN(CCN2CCOc3c(Br)cccc3C2=O)CC1 | 2.14%
COc1ccc(CC(C)NCC(O)c2cccc(Cl)c2F)cc1 (stereo unspecified) | 3.57%
COc1ccc(CN2CCN(CCOC(c3ccc(F)cc3)c3ccc(F)cc3)CC2)c(O)c1 | 4.11%
COc1cc(C=CC(=O)N2CCC(CN3CCC(c4c[nH]c5ccccc45)CC3)CC2)ccc1O | 2.24%
CC[C@H]1CN2CC[C@H]1C[C@H]2[C@H](O)c1cc(-c2ccc(F)cc2C)nc2ccc(OC)cc12 | 2.84%
Cc1cc(N)nc2cc(CNCCc3ccccc3Br)ccc12 | 7.25%

Compound | IFI
CO[C@@H]1C[C@@H](C(=O)Nc2ccccc2)N(c2ccc(C#N)c3ccccc23)C1 | 0.72%
CCCN(CCC)CCOC(=O)C(OCC)(c1ccccc1)c1ccccc1 | -0%
Cc1[nH]c2cc(Cl)ccc2c1C1=CCN(CCCCC2(C)C(=O)Nc3c(F)cccc32)CC1 (stereo unspecified) | 2.21%
O=C(NC1CCC(N2CCC3(CC2)C(=O)NCN3c2ccccc2)CC1)c1cc2ccccc2[nH]1 (stereo unspecified) | 7.58%
CC[C@H]1CN2CC[C@@H]1C[C@H]2[C@H](O)c1cc(N2CCCC(C)(C)C2)nc2ccc(OC)cc12 | 7.55%
Cc1ccc2[nH]cc(C3CCN(CC4CCC(NC(=O)/C=C/c5ccc(Cl)c(Cl)c5)CC4)CC3)c2c1 (stereo unspecified) | 5.97% and 6.47%
O=C(/C=C/c1ccsc1)NC1CCC(CN2CCC(c3c[nH]c4ccccc34)CC2)CC1 (stereo unspecified) | 3.76%
CC(C)CNCc1cccc(-c2ccc(CN(C(=O)c3cccs3)C3CCN(Cc4ccccc4)CC3)cc2)c1 | 7.97%
O=C(C=Cc1ccccc1O)N1CCC(CN2CCC(c3c[nH]c4ccccc34)CC2)CC1 | 2.21%
Oc1ccc2[nH]cc(C3=CCN(Cc4ccccc4)CC3)c2c1 | 3.7%
Cc1cc2ccc(CNCCc3ccccc3Br)cc2nc1N | 2.22%
CC(=O)Nc1ccc(OCCN(CC(C)(C)C)c2ccc(C#N)c(C(F)(F)F)c2)c(Cl)c1 | -0%
CNC(=O)c1ccc2[nH]cc(C3CCN(CC4CCN(C(=O)/C=C/c5ccc(Cl)c(Cl)c5)CC4)CC3)c2c1 | 0.74%
O=C(/C=C/c1ccc(Cl)c(Cl)c1)NC1CCC(N2CCC(c3c[nH]c4ccccc34)CC2)CC1 (stereo unspecified) | 6.94%
CCCCCCCn1c(=O)c(C(=O)Nc2c(C)cccc2C)c(O)c2ccccc21 | -0%
CC(Cc1ccc(C2=CCNCC2)cc1)NCC(O)c1cccc(C(F)(F)F)c1 (stereo unspecified) | 2.86%
CC(Cc1ccc(Sc2ccccc2)cc1)NCC(O)c1cccc(C(F)(F)F)c1 (stereo unspecified) | 5.56%
C#CCN1CCC2=C(C1)c1c(O)cc(C(C)C(C)CCc3ccc(F)cc3)cc1OC2(C)C (stereo unspecified) | 2.29%
